Data: the RNAGym collection of RNA variant scans (doi:10.1093/nar/gkz1192)
The source gives no read counts; variants with many changes may rest on few reads.

B1: CPEB3 Ribozyme (parent)
chain: UAACAGGGGGCCACAGCAGAAGCGUUCACGUCGCAGCCCCUGUCAGAUUCUGGUGAAUCUGCGAAUUCUGCUGUAUAUCUC

Variants of: B1
Experiment: self-cleavage, relative activity (ratio to wild type); higher = more cleavage; in vitro, sequencing
Outline: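 Barcoded CPEB3 ribozyme mutants, produced by rounds of error-prone PCR, self-cleaved while being transcribed with T7 RNA polymerase for 5 hours at 37°C and during a subsequent 15 min DNase I step before EDTA was added. Sequencing of template-switched cDNA on Illumina gave cleaved and total reads, and DNA sequencing assigned barcodes to variants. Each variant's relative activity is its cleaved/total read fraction divided by the unmutated ribozyme's fraction, averaged across three batches. A variant needed a minimum of 5 reads.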
Work on C4U G16U U41C A57G U72C yielded a self-cleavage of 0.62.
For C4U G19C A47G A64G, the self-cleavage was 0.42.
Work on C4U G19U A21G G52U U60A yielded a self-cleavage of 0.16.
For C4U G22A U78C, the self-cleavage was 0.12.
C4U G24A A57G showed a self-cleavage of 0.33.
For C4U G30A A45G, the self-cleavage was 0.47.
Work on C4U G33A A45G U49C yielded a self-cleavage of 0.3.
C4U G33C U48A showed a self-cleavage of 0.31.
Work on C4U G42A A45G yielded a self-cleavage of 0.11.
C4U G63U A77G showed a self-cleavage of 1.2.
C4U U25A U41A U43C gave a self-cleavage of 0.54.
C4U U25C U60A U69A showed a self-cleavage of 0.16.
C4U U25C U69C showed a self-cleavage of 0.43.
In the case of C4U U26A A28G A35G U43C, the self-cleavage is reported as 0.27.
With C4U U26A A28G C44U U69C U74C U76A the self-cleavage was 0.08.
C4U U26A A28G G36A U43A A47G G70A showed a self-cleavage of 0.1.
For C4U U26A A75G, the self-cleavage was 0.81.
In the case of C4U U26A C44U U58C U72A U76C, the self-cleavage is reported as 0.19.
C4U U26A G36A showed a self-cleavage of 0.36.
With C4U U26A U31A the self-cleavage was 0.79.
C4U U26A U80C gave a self-cleavage of 1.13.
In the case of C4U U26C A35G U41C U72C, the self-cleavage is reported as 1.2.
With C4U U26C A35U U48C the self-cleavage was 0.24.
In the case of C4U U26C A56G U74C, the self-cleavage is reported as 0.55.
C4U U26C U31A A65G U67C U69C showed a self-cleavage of 0.11.
For C4U U26C U41C U76C C81U, the self-cleavage was 0.87.
Variant C4U U26C U67A has a self-cleavage of 0.12.
For C4U U26C U69C, the self-cleavage was 0.25.
In the case of C4U U26C U74C, the self-cleavage is reported as 0.87.
In the case of C4U U26G U67C, the self-cleavage is reported as 0.15.
In the case of C4U U31A U60A A77G, the self-cleavage is reported as 0.31.
Variant C4U U31C U48A U74G has a self-cleavage of 0.59.
In the case of C4U U31C U51A A64U U78A, the self-cleavage is reported as 0.36.
For C4U U31C U54A U76A, the self-cleavage was 1.14.
With C4U U41A U74A the self-cleavage was 0.55.
C4U U41C A47G A57G U67C U69A showed a self-cleavage of 0.34.
Variant C4U U41C U43A U54A U66C has a self-cleavage of 0.47.
C4U U41C U54C A65C gave a self-cleavage of 0.16.
In the case of C4U U41C U54C U58A U80A, the self-cleavage is reported as 0.25.
C4U U41C U58A U76C U80A gave a self-cleavage of 0.8.
With C4U U41G G46U U54A A57G the self-cleavage was 0.09.
Variant C4U U43C U51C A57G has a self-cleavage of 0.61.
C4U U60C U69A U78A U80A gave a self-cleavage of 0.39.
Work on C4U U67C U69C yielded a self-cleavage of 0.24.
Variant C4U U69G U76C has a self-cleavage of 0.98.
C4U U78A U80A gave a self-cleavage of 1.23.
In the case of A5C A13C U31A, the self-cleavage is reported as 0.55.
A5C A13G A20U showed a self-cleavage of 0.56.
Work on A5C A13G A21U U72C A77G yielded a self-cleavage of 0.27.
Work on A5C A13G A47C A57G U67A yielded a self-cleavage of 0.35.
Work on A5C A13G U41C G52C yielded a self-cleavage of 0.5.
A5C A13G U78C showed a self-cleavage of 0.69.
A5C A13U G42A A77G gave a self-cleavage of 0.31.
With A5C A15G A18G A45U the self-cleavage was 0.61.
Work on A5C A15G A18G U51C G63A U69C U80C yielded a self-cleavage of 0.56.
For A5C A15G A20G G42A A45G U48C U74C, the self-cleavage was 0.
With A5C A15G A20U U31A C32G A64G the self-cleavage was 0.49.
In the case of A5C A15G A21G U60C U72A, the self-cleavage is reported as 0.1.
With A5C A15G A64G U80A the self-cleavage was 0.99.
A5C A15G U25C A45C A57G gave a self-cleavage of 0.63.
A5C A15G U51C A57G A75G gave a self-cleavage of 0.79.
A5C A15U A18G U31C U49C A56G A64U gave a self-cleavage of 0.21.
Work on A5C A15U A18U U54C U60C U66C U78C yielded a self-cleavage of 0.1.
For A5C A15U A20U A28C A56U U67C, the self-cleavage was 0.16.
With A5C A15U A21G U26C U51C U60C the self-cleavage was 0.58.
For A5C A15U U51C U66C G70A U72C, the self-cleavage was 0.31.
A5C A15U U78C showed a self-cleavage of 1.06.
With A5C A18G A20C A65G the self-cleavage was 0.15.
A5C A18G C40U A64U U76C showed a self-cleavage of 0.16.
For A5C A18G G19A A28G U31A U78C, the self-cleavage was 0.07.
For A5C A18U U26A A75G, the self-cleavage was 0.35.
For A5C A20C G36U A47G, the self-cleavage was 0.22.
With A5C A20C U58A A65C the self-cleavage was 0.08.
A5C A20G A28G C39A A75U gave a self-cleavage of 0.45.
A5C A20G C29U U58C U72A A75G showed a self-cleavage of 0.09.
A5C A20G U41A A57G showed a self-cleavage of 0.29.
A5C A20G U41C U58C gave a self-cleavage of 0.42.
Variant A5C A20G U43A A56G has a self-cleavage of 0.44.
In the case of A5C A20G U43A A57G, the self-cleavage is reported as 0.74.
For A5C A20G U48C, the self-cleavage was 0.2.
With A5C A20G U51A G52A U58A U80C the self-cleavage was 0.22.
Work on A5C A20U A35U U58C yielded a self-cleavage of 0.1.
Work on A5C A21C C37A A57G A64G yielded a self-cleavage of 0.23.
Work on A5C A21G A45G A65G yielded a self-cleavage of 0.38.
In the case of A5C A21G C59U, the self-cleavage is reported as 0.29.
For A5C A21G G22C U51C, the self-cleavage was 0.12.
Variant A5C A21G G30U C34U U41C has a self-cleavage of 0.21.
With A5C A21U A35G U41C A64G the self-cleavage was 0.5.
In the case of A5C A21U A56U C71A, the self-cleavage is reported as 0.26.
In the case of A5C A21U C38U, the self-cleavage is reported as 0.37.
In the case of A5C A28C A56U C62U U72C U78C, the self-cleavage is reported as 0.14.
With A5C A28G A45G U54C A64U A77U the self-cleavage was 0.09.
In the case of A5C A28G A57U U80C, the self-cleavage is reported as 0.45.
A5C A28G A64G U66C showed a self-cleavage of 0.06.
With A5C A28G U31A C40U G53C U78G the self-cleavage was 0.04.
A5C A28G U51C U58A U60A A77G U78C gave a self-cleavage of 0.22.
A5C A28G U78C showed a self-cleavage of 0.6.
With A5C A35C U41A U67C the self-cleavage was 0.35.
Work on A5C A35G A57G A65G yielded a self-cleavage of 1.21.
A5C A35G A77G gave a self-cleavage of 1.21.
For A5C A35G U48A U80C, the self-cleavage was 1.2.
A5C A35G U58C gave a self-cleavage of 1.13.
A5C A35U C39A U41C U49C showed a self-cleavage of 0.48.
In the case of A5C A35U U43C, the self-cleavage is reported as 0.31.
For A5C A35U U51C, the self-cleavage was 0.36.
Variant A5C A35U U67A A77U has a self-cleavage of 0.38.
Variant A5C A47G U58C has a self-cleavage of 1.1.
With A5C A57G U67C U69C the self-cleavage was 0.18.
Work on A5C A57G U67C U76A yielded a self-cleavage of 0.15.
For A5C A57G U72A C81A, the self-cleavage was 1.11.
A5C A64U C71A showed a self-cleavage of 0.07.
A5C C11U A20G showed a self-cleavage of 0.51.
For A5C C12G G46A, the self-cleavage was 0.34.
With A5C C12U U31A A65G the self-cleavage was 0.25.
A5C C14A A45G U51A showed a self-cleavage of 0.73.
A5C C14U A21G U31C U41C A65G gave a self-cleavage of 0.09.
A5C C23G G46U gave a self-cleavage of 0.17.
Work on A5C C27A U58C A75U yielded a self-cleavage of 0.33.
A5C C29U C32U A57G U72C showed a self-cleavage of 0.05.
In the case of A5C C32A A35G U41A, the self-cleavage is reported as 0.36.
With A5C C32A A35G U60A U67C the self-cleavage was 0.15.
For A5C C32U A56U U60C, the self-cleavage was 0.47.
A5C C32U U41C A65G U69C C71G gave a self-cleavage of 0.08.
A5C C34U U72C gave a self-cleavage of 0.44.
A5C C37G U60C showed a self-cleavage of 0.27.
A5C C39A G53A showed a self-cleavage of 0.12.
With A5C C39A U51C A57G A65G U74C the self-cleavage was 0.09.
A5C C40A U41A showed a self-cleavage of 0.36.
Variant A5C C40A U66G has a self-cleavage of 0.16.
With A5C C50U U72C A77C the self-cleavage was 0.58.
In the case of A5C C71U A77G, the self-cleavage is reported as 0.97.
With A5C G6A A13G A28G the self-cleavage was 0.41.
For A5C G6A A13U C23G A57G C71G, the self-cleavage was 0.1.
Variant A5C G6A A35G U43C A56G U76C has a self-cleavage of 0.09.
For A5C G6A U66C U78C, the self-cleavage was 0.06.
With A5C G6C G8A A45U the self-cleavage was 0.43.
A5C G6C U26C U41A U43A A77C gave a self-cleavage of 0.27.
A5C G6C U67A U80C gave a self-cleavage of 0.53.
With A5C G7A U72A the self-cleavage was 0.18.
Variant A5C G7C U41C U60C U80A has a self-cleavage of 0.43.
Work on A5C G8A A21G A45U U51G yielded a self-cleavage of 0.06.
Work on A5C G8A A21G U31C U78C U80A yielded a self-cleavage of 0.04.
With A5C G8A A21G U49C U54C the self-cleavage was 0.19.
A5C G8A C14A A21G U31C A65U showed a self-cleavage of 0.1.
A5C G8U A28G U80C gave a self-cleavage of 0.27.
For A5C G9A A15G A28G U67A, the self-cleavage was 0.12.
In the case of A5C G9A A20U C32U U78C, the self-cleavage is reported as 0.72.
With A5C G9A A35U U41G the self-cleavage was 0.31.
With A5C G9A A56G the self-cleavage was 0.12.
Work on A5C G9A C14A A28C G33C A45G U72A yielded a self-cleavage of 0.04.
With A5C G9A G36C A47G C79G the self-cleavage was 0.03.
A5C G9C U25A A28U G36A showed a self-cleavage of 0.08.
Work on A5C G9U A18G A35C U60C yielded a self-cleavage of 0.
Work on A5C G9U A20G U25C C38G yielded a self-cleavage of 0.07.
A5C G9U A28U gave a self-cleavage of 0.08.
A5C G9U A28U U43C U80C showed a self-cleavage of 0.32.
Variant A5C G9U U72C A77G has a self-cleavage of 0.11.
For A5C G10A A21G G33A, the self-cleavage was 0.08.
A5C G10A U26C U49A U54C U66C showed a self-cleavage of 0.07.
Work on A5C G19A U26C C59U yielded a self-cleavage of 0.1.
A5C G19A U43A U76A gave a self-cleavage of 0.21.
For A5C G19C A21C U69C U78C, the self-cleavage was 0.16.
In the case of A5C G19C C40A U49A, the self-cleavage is reported as 0.1.
A5C G19U U26C U31A U41A A75G showed a self-cleavage of 0.11.
For A5C G24C U48C, the self-cleavage was 0.29.
For A5C G36A A57G, the self-cleavage was 0.33.
For A5C G36U A47G U49C, the self-cleavage was 0.21.
